Measured values: PMC12820563, “FoxP3 forms a head-to-head dimer in vivo and stabilizes its multimerization on adjacent microsatellites”
The other results are listed elsewhere or left out.

Target: T1, MBP-FoxP1dN (Mus musculus, UniProt P58462 326-579)
T1 sequence: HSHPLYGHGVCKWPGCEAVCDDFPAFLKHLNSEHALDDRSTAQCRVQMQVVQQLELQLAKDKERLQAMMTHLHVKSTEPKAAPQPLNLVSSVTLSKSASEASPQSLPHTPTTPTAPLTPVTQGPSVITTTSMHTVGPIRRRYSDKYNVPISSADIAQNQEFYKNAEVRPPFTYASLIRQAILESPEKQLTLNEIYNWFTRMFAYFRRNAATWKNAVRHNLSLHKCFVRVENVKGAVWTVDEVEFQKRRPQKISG
Experiment: PD-seq (MBP pull-down with sequencing); 20 mM Tris-HCl pH 7.5, 100 mM NaCl, 1.5 mM MgCl2, 0.4 uM protein, 0.1 uM dsDNA library, 30 min, room temperature, amylose pull-down; high values mean tight binding
Details: protein: recombinant; tags: His6-MBP; chain copies: 2; dsDNA, one strand shown
Method in brief: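 E. coli-expressed mouse FoxP3 or FoxP1 fragment, N-terminus removed and tagged with His6-MBP, was used at 0.4 µM against 0.1 µM of a Klenow-filled degenerate double-stranded DNA library. After 30 min at room temperature in Tris pH 7.5 buffer with NaCl and MgCl2, complexes were pulled down on amylose resin and washed three times. Binding is pull-down over input reads-per-million enrichment from pooled replicates of the proteinase K-released, PCR-barcoded, Illumina-sequenced DNA.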

| Sequence | binding signal |
| --- | --- |
| GATGATTGTTCTCCCAGCTGATGAATTGCTCACATCGAGTAAACAAATTTTCCTAATCTTTCTGTTCAAGCGCCATCTAC | 1.15 RPM ratio (pull-down/input) |
| GATGATTGTTCTCCCAGCTGATGAATTAAGCTATTCGAGTAAACAAATTTTCCTAATCTTTCTGTTCAAGCGCCATCTAC | 0.965 RPM ratio (pull-down/input) |
| GATGATTGTTCTCCCAGCTGATGAATTGTCACCATCGAGTAAACAAATTTTCCTAATCTTTCTGTTCAAGCGCCATCTAC | 1.13 RPM ratio (pull-down/input) |
| GATGATTGTTCTCCCAGCTGATGAATTGCAGATCTCGAGTAAACAAATTTTCCTAATCTTTCTGTTCAAGCGCCATCTAC | 1.03 RPM ratio (pull-down/input) |
| GATGATTGTTCTCCCAGCTGATGAATTCATGGGATCGAGTAAACAAATTTTCCTAATCTTTCTGTTCAAGCGCCATCTAC | 0.899 RPM ratio (pull-down/input) |
| GATGATTGTTCTCCCAGCTGATGAATTGGATTCATCGAGTAAACAAATTTTCCTAATCTTTCTGTTCAAGCGCCATCTAC | 0.887 RPM ratio (pull-down/input) |
| GATGATTGTTCTCCCAGCTGATGAATTGAACTGGTCGAGTAAACAAATTTTCCTAATCTTTCTGTTCAAGCGCCATCTAC | 0.74 RPM ratio (pull-down/input) |
| GATGATTGTTCTCCCAGCTGATGAATTGGGACACTCGAGTAAACAAATTTTCCTAATCTTTCTGTTCAAGCGCCATCTAC | 0.901 RPM ratio (pull-down/input) |
| GATGATTGTTCTCCCAGCTGATGAATTGATCAGGTCGAGTAAACAAATTTTCCTAATCTTTCTGTTCAAGCGCCATCTAC | 0.877 RPM ratio (pull-down/input) |
| GATGATTGTTCTCCCAGCTGATGAATTCTACCCATCGAGTAAACAAATTTTCCTAATCTTTCTGTTCAAGCGCCATCTAC | 0.851 RPM ratio (pull-down/input) |
| GATGATTGTTCTCCCAGCTGATGAATTTTACTTCTCGAGTAAACAAATTTTCCTAATCTTTCTGTTCAAGCGCCATCTAC | 0.828 RPM ratio (pull-down/input) |
| GATGATTGTTCTCCCAGCTGATGAATTAGATGCCTCGAGTAAACAAATTTTCCTAATCTTTCTGTTCAAGCGCCATCTAC | 1.21 RPM ratio (pull-down/input) |
| GATGATTGTTCTCCCAGCTGATGAATTGCGCATGTCGAGTAAACAAATTTTCCTAATCTTTCTGTTCAAGCGCCATCTAC | 1.1 RPM ratio (pull-down/input) |
| GATGATTGTTCTCCCAGCTGATGAATTGCGGAGTTCGAGTAAACAAATTTTCCTAATCTTTCTGTTCAAGCGCCATCTAC | 0.951 RPM ratio (pull-down/input) |
| GATGATTGTTCTCCCAGCTGATGAATTCTCTCAATCGAGTAAACAAATTTTCCTAATCTTTCTGTTCAAGCGCCATCTAC | 0.964 RPM ratio (pull-down/input) |
| GATGATTGTTCTCCCAGCTGATGAATTACAGAAGTCGAGTAAACAAATTTTCCTAATCTTTCTGTTCAAGCGCCATCTAC | 1.05 RPM ratio (pull-down/input) |

| Sequence | binding signal |
| --- | --- |
| GATGATTGTTCTCCCAGCTGATGAATTGTGGCTGTCGAGTAAACAAATTTTCCTAATCTTTCTGTTCAAGCGCCATCTAC | 1.03 RPM ratio (pull-down/input) |
| GATGATTGTTCTCCCAGCTGATGAATTCGTGGATTCGAGTAAACAAATTTTCCTAATCTTTCTGTTCAAGCGCCATCTAC | 0.795 RPM ratio (pull-down/input) |
| GATGATTGTTCTCCCAGCTGATGAATTCAATAGGTCGAGTAAACAAATTTTCCTAATCTTTCTGTTCAAGCGCCATCTAC | 0.938 RPM ratio (pull-down/input) |
| GATGATTGTTCTCCCAGCTGATGAATTAGGCAACTCGAGTAAACAAATTTTCCTAATCTTTCTGTTCAAGCGCCATCTAC | 1.02 RPM ratio (pull-down/input) |
| GATGATTGTTCTCCCAGCTGATGAATTTATGGAGTCGAGTAAACAAATTTTCCTAATCTTTCTGTTCAAGCGCCATCTAC | 1.01 RPM ratio (pull-down/input) |
| GATGATTGTTCTCCCAGCTGATGAATTGCAGGGTTCGAGTAAACAAATTTTCCTAATCTTTCTGTTCAAGCGCCATCTAC | 0.958 RPM ratio (pull-down/input) |
| GATGATTGTTCTCCCAGCTGATGAATTATGAGACTCGAGTAAACAAATTTTCCTAATCTTTCTGTTCAAGCGCCATCTAC | 0.918 RPM ratio (pull-down/input) |
| GATGATTGTTCTCCCAGCTGATGAATTAACTAAGTCGAGTAAACAAATTTTCCTAATCTTTCTGTTCAAGCGCCATCTAC | 0.827 RPM ratio (pull-down/input) |
| GATGATTGTTCTCCCAGCTGATGAATTGGTAGCCTCGAGTAAACAAATTTTCCTAATCTTTCTGTTCAAGCGCCATCTAC | 0.922 RPM ratio (pull-down/input) |
| GATGATTGTTCTCCCAGCTGATGAATTACGCAACTCGAGTAAACAAATTTTCCTAATCTTTCTGTTCAAGCGCCATCTAC | 1.09 RPM ratio (pull-down/input) |
| GATGATTGTTCTCCCAGCTGATGAATTATGCTTGTCGAGTAAACAAATTTTCCTAATCTTTCTGTTCAAGCGCCATCTAC | 1.28 RPM ratio (pull-down/input) |
| GATGATTGTTCTCCCAGCTGATGAATTTTAGCTTTCGAGTAAACAAATTTTCCTAATCTTTCTGTTCAAGCGCCATCTAC | 1.07 RPM ratio (pull-down/input) |
| GATGATTGTTCTCCCAGCTGATGAATTCACCTCTTCGAGTAAACAAATTTTCCTAATCTTTCTGTTCAAGCGCCATCTAC | 0.858 RPM ratio (pull-down/input) |
| GATGATTGTTCTCCCAGCTGATGAATTCACCACGTCGAGTAAACAAATTTTCCTAATCTTTCTGTTCAAGCGCCATCTAC | 0.911 RPM ratio (pull-down/input) |
| GATGATTGTTCTCCCAGCTGATGAATTAGACCGTTCGAGTAAACAAATTTTCCTAATCTTTCTGTTCAAGCGCCATCTAC | 0.892 RPM ratio (pull-down/input) |
| GATGATTGTTCTCCCAGCTGATGAATTGGGTATTTCGAGTAAACAAATTTTCCTAATCTTTCTGTTCAAGCGCCATCTAC | 0.949 RPM ratio (pull-down/input) |
